Among all 3,200 compounds or so, about 110 (3.4%) showed an effect of 50% or more. Some of the results follow.
system: T1, V. cholerae SAD30; parameters: species or system S. aureus MSSA476 (TSB) or V. cholerae SAD30 (LB); 384-well bacterial growth screen at 25 uM, OD600 relative to DMSO control; details: relative growth, OD600, LB; 25 µM; inhibitor
T1 construct: SAD30

Row | SMILES | % of control remaining
1 | C=CC(=O)N1CCC(C(=O)N2CCC(Cc3ncon3)CC2)CC1 [2-J06, 1-(4-{4-[(1,2,4-oxadiazol-3-yl)methyl]piperidine-1-carbonyl}piperidin-1-yl)prop-2-en-1-one] | 91.7398%
2 | CC(Cl)C(=O)N(Cc1cnn(C)c1)c1ccc(F)cc1 (centres unmarked) [6-P11, 2-chloro-N-(4-fluorophenyl)-N-[(1-methyl-1H-pyrazol-4-yl)methyl]propanamide] | 104.048%
3 | Cc1cccc(Cl)c1CCCNC(=O)CCl [7-F04, 2-chloro-N-[3-(2-chloro-6-methylphenyl)propyl]acetamide] | 91.9874%
4 | Cc1cc(C(=O)CCl)c(C)n1C(C)c1ccccc1 (centres unmarked) [10-P17, 2-chloro-1-[2,5-dimethyl-1-(1-phenylethyl)-1H-pyrrol-3-yl]ethan-1-one] | 96.4738%
5 | COc1ccc([N+](=O)[O-])cc1NC(=O)C(C)Cl (centres unmarked) [5-N14, 2-chloro-N-(2-methoxy-5-nitrophenyl)propanamide] | 92.6342%
6 | CC(Cl)C(=O)Nc1ccc(-c2c[nH]cn2)cc1 (centres unmarked) [5-F08, 2-chloro-N-[4-(1H-imidazol-4-yl)phenyl]propanamide] | 97.5097%
7 | N#Cc1cccc(C(NC(=O)CCl)C(F)(F)F)c1 (centres unmarked) [7-N04, 2-chloro-N-[1-(3-cyanophenyl)-2,2,2-trifluoroethyl]acetamide] | 91.9874%
8 | O=C(CCl)Nc1cc(S(=O)(=O)N2CCOCC2)ccc1Cl [6-H03, 2-chloro-N-[2-chloro-5-(morpholine-4-sulfonyl)phenyl]acetamide] | 102.986%
9 | Cl.O=C(CCl)Nc1ncc[nH]1 [6-B03, 2-chloro-N-(1H-imidazol-2-yl)acetamide hydrochloride] | 109.053%
10 | CC(C)NC(=O)C(C#N)=Cc1ccc(Cl)c([N+](=O)[O-])c1 [8-J08, 3-(4-chloro-3-nitrophenyl)-2-cyano-N-(propan-2-yl)prop-2-enamide] | 70.6322%
11 | O=C(CCl)Nc1ccc(S(=O)(=O)N2CCCC2)cc1 [4-F08, 2-chloro-N-[4-(pyrrolidine-1-sulfonyl)phenyl]acetamide] | 107.483%
12 | N#CC(=Cc1ccc(OC(F)F)cc1)C(=O)Nc1cccnc1 [9-K04, 2-cyano-3-[4-(difluoromethoxy)phenyl]-N-(pyridin-3-yl)prop-2-enamide] | 92.93%
13 | Cc1cc(C(=O)CCl)c(C)n1-c1ccc(OC(F)(F)F)cc1 [10-G04, 2-chloro-1-{2,5-dimethyl-1-[4-(trifluoromethoxy)phenyl]-1H-pyrrol-3-yl}ethan-1-one] | 98.344%
14 | COCc1ccc(CNC(=O)CCl)cc1 [6-O22, 2-chloro-N-{[4-(methoxymethyl)phenyl]methyl}acetamide] | 102.683%
15 | CN(c1ccccc1)S(=O)(=O)c1cccc(NC(=O)CCl)c1 [4-H04, 2-chloro-N-{3-[methyl(phenyl)sulfamoyl]phenyl}acetamide] | 111.106%
16 | C=CC(=O)N1CCC(C(=O)Nc2ccn(Cc3ccccn3)n2)CC1 [3-B07, 1-(prop-2-enoyl)-N-{1-[(pyridin-2-yl)methyl]-1H-pyrazol-3-yl}piperidine-4-carboxamide] | 107.969%
17 | O=C(CCl)N(Cc1cc(F)ccc1F)CC1CCOCC1 [5-P03, 2-chloro-N-[(2,5-difluorophenyl)methyl]-N-[(oxan-4-yl)methyl]acetamide] | 118.693%
18 | CC(=O)N(C)c1cccc(NC(=O)C(C#N)=Cc2ccco2)c1 [9-L18, 2-cyano-3-(furan-2-yl)-N-[3-(N-methylacetamido)phenyl]prop-2-enamide] | 86.8117%
19 | C=CC(=O)NCc1ccc(C(=O)N2CCCC23CCOC3=O)cc1 (centres unmarked) [3-I06, N-[(4-{6-oxo-7-oxa-1-azaspiro[4.4]nonane-1-carbonyl}phenyl)methyl]prop-2-enamide] | 101.441%
20 | C=CC(=O)NC1CC(C2CCCCC2)C1 (centres unmarked) [1-D10, N-(3-cyclohexylcyclobutyl)prop-2-enamide] | 96.9087%
21 | C=CC(=O)NCCc1nccs1 [3-M20, N-[2-(1,3-thiazol-2-yl)ethyl]prop-2-enamide] | 96.6771%
22 | Cc1cc(C=C(C#N)C(=O)Nc2ccccn2)c(C)n1CC(C)C [9-J21, 2-cyano-3-[2,5-dimethyl-1-(2-methylpropyl)-1H-pyrrol-3-yl]-N-(pyridin-2-yl)prop-2-enamide] | 56.6281%
23 | COc1ccccc1CNC(=O)C(C)Cl (centres unmarked) [5-M21, 2-chloro-N-[(2-methoxyphenyl)methyl]propanamide] | 101.376%
24 | Cc1cccc(NC(=O)C(C#N)=Cc2cc(C)c(C)cc2C)c1 [8-C18, 2-cyano-N-(3-methylphenyl)-3-(2,4,5-trimethylphenyl)prop-2-enamide] | 77.2944%
25 | CN(Cc1cc(-c2ccccc2)[nH]n1)C(=O)CCl [5-D15, 2-chloro-N-methyl-N-[(5-phenyl-1H-pyrazol-3-yl)methyl]acetamide] | 93.643%
26 | Cc1cccc(NC(=O)C(C#N)=Cc2cc(C)n(C3CC3)c2C)c1 [9-D17, 2-cyano-3-(1-cyclopropyl-2,5-dimethyl-1H-pyrrol-3-yl)-N-(3-methylphenyl)prop-2-enamide] | 86.8117%
27 | CC(=O)Nc1ccc(NC(=O)C(C)Cl)cc1 (centres unmarked) [5-N06, 2-chloro-N-(4-acetamidophenyl)propanamide] | 100.704%
28 | O=C(CCl)Cc1cc(Cl)cc(Cl)c1 [10-I15, 1-chloro-3-(3,5-dichlorophenyl)propan-2-one] | 20.7286%
29 | O=C(CCl)NCc1ccccc1CN1CCCC1=O [6-K14, 2-chloro-N-({2-[(2-oxopyrrolidin-1-yl)methyl]phenyl}methyl)acetamide] | 91.0039%

From article PMC11995724, “Antibiotic target discovery by integrated phenotypic and activity-based profiling of electrophilic fragments” (Cell chemical biology, 2025)
